According to the supplement of paper PMC10928670:

How the values were obtained:
Experiment in all cases: Agar dilution by CLSI M07.
spectinomycin = compound: CN[C@@H]1[C@H](O)[C@H](NC)[C@H]2O[C@@]3(O)C(=O)C[C@@H](C)O[C@H]3O[C@@H]2[C@H]1O [spectinomycin]
cefixime = compound: C=CC1=C(C(=O)O)N2C(=O)[C@@H](NC(=O)/C(=N\OCC(=O)O)c3csc(N)n3)[C@H]2SC1 [cefixime]
ceftriaxone = compound: CO/N=C(\C(=O)N[C@@H]1C(=O)N2C(C(=O)O)=C(CSc3nc(=O)c(O)nn3C)CS[C@H]12)c1csc(N)n1 [ceftriaxone]
penicillin G = compound: CC1(C)S[C@@H]2[C@H](NC(=O)Cc3ccccc3)C(=O)N2[C@H]1C(=O)O [penicillin G]
azithromycin = compound: CC[C@H]1OC(=O)[C@H](C)[C@@H](O[C@H]2C[C@@](C)(OC)[C@@H](O)[C@H](C)O2)[C@H](C)[C@@H](O[C@@H]2O[C@H](C)C[C@H](N(C)C)[C@H]2O)[C@](C)(O)C[C@@H](C)CN(C)[C@H](C)[C@@H](O)[C@]1(C)O [azithromycin]

Row | Test System | MIC (spectinomycin) [mg/L] | MIC (cefixime) [mg/L] | MIC (ceftriaxone) [mg/L] | MIC (penicillin G) [mg/L] | MIC (azithromycin) [mg/L]
1 | Neisseria gonorrhoeae isolate 90 (GyrA: Wild type, ParC: Wild type, mtrR: -35A Del, G45D, penA: Type I NonMosaic, ponA: L421P, porB: G120D, A121G) | 16 | ≤ 0.015 | ≤ 0.015 | 0.06 | ≤ 0.03
2 | Neisseria gonorrhoeae isolate 91 (GyrA: Wild type, ParC: Wild type, mtrR: -35A Del, A39T, penA: Type IV NonMosaic, A517G, G543S, ponA: Wild type, porB: Wild type) | 32 | 0.03 | 0.03 | 0.5 | 0.25
3 | Neisseria gonorrhoeae isolate 92 (GyrA: Wild type, ParC: Wild type, mtrR: Wild type, penA: Type I NonMosaic, ponA: Wild type, porB: Wild type) | 32 | ≤ 0.015 | ≤ 0.015 | 0.06 | ≤ 0.03
4 | Neisseria gonorrhoeae isolate 93 (GyrA: Wild type, ParC: Wild type, mtrR: -35A Del, G45D, penA: Type IX NonMosaic, A517G, ponA: L421P, porB: G120K, A121D) | 32 | 0.03 | 0.03 | 2 | 0.25
5 | Neisseria gonorrhoeae isolate 94 (GyrA: Wild type, ParC: Wild type, mtrR: -35A Del, penA: Type IX NonMosaic, A517G, ponA: L421P, porB: Wild type) | 16 | ≤ 0.015 | ≤ 0.015 | 2 | 1
6 | Neisseria gonorrhoeae isolate 95 (GyrA: Wild type, ParC: Wild type, mtrR: -35A Del, penA: Type XXII NonMosaic, A517G, ponA: L421P, porB: G120D, A121D) | 16 | ≤ 0.015 | ≤ 0.015 | 1 | 0.5
7 | Neisseria gonorrhoeae isolate 96 (GyrA: S91F, ParC: Wild type, mtrR: A39T, penA: Type XIX NonMosaic, A517G, ponA: L421P, porB: porB1a) | 32 | ≤ 0.015 | ≤ 0.015 | 16 | 0.06
8 | Neisseria gonorrhoeae isolate 97 (GyrA: Wild type, ParC: Wild type, mtrR: Wild type, penA: Type I NonMosaic, ponA: Wild type, porB: Wild type) | 16 | ≤ 0.015 | ≤ 0.015 | 0.125 | 0.25
9 | Neisseria gonorrhoeae isolate 98 (GyrA: Wild type, ParC: Wild type, mtrR: -35A Del, penA: Type XXII NonMosaic, A517G, ponA: Wild type, porB: G120D, A121D) | 16 | ≤ 0.015 | ≤ 0.015 | 1 | 0.5
10 | Neisseria gonorrhoeae isolate 99 (GyrA: S91F, ParC: Wild type, mtrR: -35A Del, penA: Type II NonMosaic, A517G, ponA: L421P, porB: G120K, A121D) | 16 | 0.03 | 0.03 | 64 | 0.25
11 | Neisseria gonorrhoeae isolate 100 (GyrA: Wild type, ParC: Wild type, mtrR: Wild type, penA: Type II NonMosaic, A517G, ponA: L421P, porB: G120N, A121D) | 16 | ≤ 0.015 | ≤ 0.015 | 0.25 | 0.25
12 | Neisseria gonorrhoeae isolate 101 (GyrA: S91F, ParC: Wild type, mtrR: G45D, penA: Type IX NonMosaic, A517G, ponA: L421P, porB: G120K, A121D) | 16 | 0.03 | 0.03 | 2 | 0.06
13 | Neisseria gonorrhoeae isolate 102 (GyrA: Wild type, ParC: Wild type, mtrR: -35A Del, A39T, penA: Type IV NonMosaic, A517G, G543S, ponA: L421P, porB: G120K, A121D) | 8 | ≤ 0.015 | ≤ 0.015 | 0.25 | ≤ 0.03
14 | Neisseria gonorrhoeae isolate 103 (GyrA: D95G, ParC: Wild type, mtrR: -35A Del, penA: Type XII NonMosaic, A517G, ponA: L421P, porB: G120K, A121N) | 32 | 0.06 | 0.06 | 2 | 1
15 | Neisseria gonorrhoeae isolate 104 (GyrA: D95N, ParC: Wild type, mtrR: -35A Del, penA: Type XII NonMosaic, A517G, ponA: L421P, porB: G120K, A121N) | 32 | 0.03 | 0.03 | 16 | 0.5
16 | Neisseria gonorrhoeae isolate 105 (GyrA: S91F, D95G, ParC: Wild type, mtrR: -35A Del, penA: Type V NonMosaic, A517G, G543S, ponA: L421P, porB: G120K, A121D) | 16 | ≤ 0.015 | ≤ 0.015 | 0.25 | ≤ 0.03

Row | Test System | MIC (spectinomycin) [mg/L] | MIC (cefixime) [mg/L] | MIC (ceftriaxone) [mg/L] | MIC (penicillin G) [mg/L] | MIC (azithromycin) [mg/L]
17 | Neisseria gonorrhoeae isolate 106 (GyrA: S91F, D95N, ParC: S88P, mtrR: -35A Del, G45D, penA: Type X Mosaic, N513Y, ponA: L421P, porB: G120K, A121D) | 32 | 0.5 | 0.125 | 2 | 0.125
18 | Neisseria gonorrhoeae isolate 107 (GyrA: Wild type, ParC: Wild type, mtrR: Wild type, penA: Type XXII NonMosaic, A517G, ponA: L421P, porB: Wild type) | 16 | ≤ 0.015 | ≤ 0.015 | 0.25 | 0.125
19 | Neisseria gonorrhoeae isolate 108 (GyrA: Wild type, ParC: Wild type, mtrR: -35A Del, G45D, penA: Type XII NonMosaic, A517G, ponA: L421P, porB: G120K, A121D) | 16 | ≤ 0.015 | ≤ 0.015 | 1 | 0.06
20 | Neisseria gonorrhoeae isolate 109 (GyrA: Wild type, ParC: Wild type, mtrR: -35A Del, G45D, penA: Type XIX NonMosaic, A517G, ponA: Wild type, porB: G120D, A121D) | 16 | ≤ 0.015 | ≤ 0.015 | 0.125 | ≤ 0.03
21 | Neisseria gonorrhoeae isolate 110 (GyrA: Wild type, ParC: Wild type, mtrR: -35A Del, penA: Type IV NonMosaic, A517G, G543S, ponA: L421P, porB: G120K, A121D) | 32 | 0.06 | 0.125 | 2 | 0.25
22 | Neisseria gonorrhoeae isolate 111 (GyrA: Wild type, ParC: Wild type, mtrR: -35A Del, G45D, penA: Type II NonMosaic, A517G, ponA: L421P, porB: Wild type) | 8 | ≤ 0.015 | ≤ 0.015 | 0.5 | 0.125
23 | Neisseria gonorrhoeae isolate 112 (GyrA: Wild type, ParC: Wild type, mtrR: A39T, penA: Type II NonMosaic, A517G, ponA: Wild type, porB: Wild type) | 16 | ≤ 0.015 | ≤ 0.015 | 0.125 | ≤ 0.03
24 | Neisseria gonorrhoeae isolate 113 (GyrA: Wild type, ParC: Wild type, mtrR: -35A Del, G45D, penA: Type IX NonMosaic, A517G, ponA: L421P, porB: G120N, A121D) | 32 | ≤ 0.015 | 0.03 | 1 | 0.5
25 | Neisseria gonorrhoeae isolate 114 (GyrA: S91F, D95G, ParC: Wild type, mtrR: -35A Del, penA: Type V Nonmosaic, A517G, G543S, ponA: L421P, porB: G120K, A121D) | 16 | 0.125 | 0.06 | 4 | 0.25
26 | Neisseria gonorrhoeae isolate 115 (GyrA: Wild type, ParC: Wild type, mtrR: G45D, penA: Type XXII NonMosaic, A517G, ponA: L421P, porB: G120D) | 32 | ≤ 0.015 | ≤ 0.015 | 1 | 0.25
27 | Neisseria gonorrhoeae isolate 116 (GyrA: S91F, ParC: Wild type, mtrR: G45D, penA: Type IV NonMosaic, A517G, G543S, ponA: L421P, porB: G120K, A121D) | 16 | 0.03 | 0.03 | 2 | 0.06
28 | Neisseria gonorrhoeae isolate 117 (GyrA: Wild type, ParC: Wild type, mtrR: G45D, penA: Type XXII NonMosaic, A517G, ponA: Wild type, porB: Wild type) | 8 | ≤ 0.015 | ≤ 0.015 | 0.5 | 0.25
29 | Neisseria gonorrhoeae isolate 118 (GyrA: Wild type, ParC: Wild type, mtrR: G45D, penA: Type XXII NonMosaic, A517G, ponA: Wild type, porB: Wild type) | 16 | ≤ 0.015 | ≤ 0.015 | 0.25 | 0.06
30 | Neisseria gonorrhoeae isolate 119 (GyrA: D95G, ParC: Wild type, mtrR: Wild type, penA: Type I NonMosaic, ponA: Wild type, porB: Wild type) | 16 | ≤ 0.015 | ≤ 0.015 | 0.25 | 0.06
31 | Neisseria gonorrhoeae isolate 120 (GyrA: Wild type, ParC: Wild type, mtrR: -35A Del, G45D, penA: Type XIX NonMosaic, A517G, ponA: L421P, porB: G120D, A121D) | 16 | ≤ 0.015 | ≤ 0.015 | 0.125 | ≤ 0.03
32 | Neisseria gonorrhoeae isolate 121 (GyrA: Wild type, ParC: Wild type, mtrR: -35A Del, penA: Type XIII NonMosaic, A501V, A517G, ponA: Wild type, porB: G120K, A121D) | 32 | 0.25 | 0.125 | > 64 | 0.25

MIC of N. gonorrhoeae strains collected 1971-2005, agar dilution (CLSI M07); ranges 0.03-64 mg/L (penicillin, azithromycin), 0.015-1 (cefixime, ceftriaxone), 0.5-256 (spectinomycin); higher = less susceptible. No active / inactive call per row; the paper counts cefixime and ceftriaxone above 0.25 and azithromycin above 1 mg/L as non-susceptible. The source says 'penicillin'; penicillin G is assumed. Isolates are numbered anew.
